# In the RNAGym collection of RNA variant scans (doi:10.7554/elife.90254):
# Read counts are not given, so values of variants with three or more changes are uncertain.
# B1: OR4K15 (parent)
# chain: GUUAACGGUCAUAGGCCAUGGAAACUAGGAGCACCAUUUCGCUGCCAGUGAAGAAAUGAACAAAGAAAAUCUGGGCCAGGCAGGCAUCAAAAGAAAUAGUCUUGCGCUCAACCAGAAAGUCUGUAAUCAUUUUAAGGGUA
# Variants of: B1
# Experiment: self-cleavage, relative activity (ratio to wild type); higher = more cleavage; in vitro, sequencing; the parent is a self-cleaving ribozyme
row,Variant,self-cleavage
1,G41A C81U A89U,0.61
2,U43A A54G A55G A91G A94G U103C,0.29
3,U43A U49C A56G U97A U108C,0
4,A47G A54G U72C,0.22
5,C40U A55G A64U U130C,0.54
6,C40U A68G A82G U108C,0.02
7,U39C G93A A118G C128G,0.75
8,U43C A47G A89G,0.95
9,U43C G53U A55G,0.87
10,C42U A55G U100C A129U,1.65
11,U43C A47U A60U U108C,0.01
12,A47G A62U A89U,1.14
13,U43A A52G A89G C112A A118G,0.04
14,C40U A56G A96G A117U,0.64
15,C40G U87C U131C,1.77
16,G41A A95G G99U U127C A129G,0.03
17,A47G A52G U72C A116G,0.08
18,G44A U102C U108C A118G,0
19,U43A A82G G138A,0.4
20,U39C G58A U100C,1.88
21,C46U A67G A95G U130C,1.15

row,Variant,self-cleavage
1,U43C G44U A54U A63G U132C,1.77
2,C40U A64G U108C U139C,0.01
3,C42A A55G U87C A95G,1.27
4,C45U A47C A89U,2.06
5,U43C G79A A94G U120A,0.11
6,A47G A60C A96U,1.48
7,U43G G48A A56G A67G U120A U127A,0.94
8,C46U A60C U72A,0.45
9,G44A A66G A111G,0.02
10,A47G A54G U122A A126U,0.45
11,U43C A110G U139C,0.16
12,U39C U43A A98G,1.67
13,U43C C61U U127A,1.81
14,C40U A62U U130C,1.41
15,G41A A54G U133C,2.29
16,C40A A60G U70C,1.46
17,A47G A51U A69U,2.17
18,C40U A67G A118G,1.54
19,A47G A51G A66G U122C,1.45
20,C46U A95G U108C,0.02
21,C40A A51G A95G A96G A126G A140G,1.46

row,Variant,self-cleavage
1,C40U A55G C61U A118G,1
2,G41U A60U U72G A90U U131C,0.14
3,U39C U43A A91G U102C U130C,1.4
4,U39C U49C A51G,0.9
5,U43A U57A G104A,0.07
6,C40U U127A U132C,2.48
7,U43A U87C A94G U127C,1.83
8,U39C U43A A95G U133C,0.88
9,U43C A95G U131C,2.55
10,C46A G73A U108C A118G,0.02
11,U43A U103C C113U,0.05
12,A47G A51U A98G,0.37
13,U43C A54C A64G A111G,0.02
14,U43C U87C U127G G138C,0.93
15,A47C U108C U122C A129G,0.01
16,U43C A89G U102A A110C,0.05
17,C42U A52G U100C,2.41
18,C42A U103C U132C,1.07
19,U43C A90U A117G,2.08
20,A47C A78G A86G A92G,0.07
21,U43G A54U A67G,2.65

row,Variant,self-cleavage
1,U43C A66G A67C A125G,0.7
2,U43C U130C U132C,1.13
3,C40U G41U U108C,0.02
4,C40U A59U A63U U72A G79A,0.17
5,C42U A54U A59G,0.98
6,U43G A52G U97C C105U U132C,0.16
7,U39C A135G G138U U139A,2.46
8,U43G U108C A125G,0.02
9,U43C U49C A67G A114G,0.74
10,C46A A82G A118G U131C,0.21
11,G41A U72C A86G U108C,0.01
12,C46U A55G A110G,0.07
13,U43A A91C A117G,1.84
14,U43C A59G A114G,0.12
15,U43C A125G A126G,0.08
16,U43C A96U A129U,1.25
17,U43A A51G A110U C121U A125G,1.31
18,A47G A62U A94G A95G U108C,0.05
19,G41A U127C A129G,0.44
20,G44A A89U A114U,0.09
21,U43C A52C A59G C112U U130A,0.01
